In PubChem BioAssay (NCI):
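Here, GI50 denotes the concentration required for 50% inhibition of growth.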 For part of its entries the source gives two or more results. This list holds those alone. There may be further records. Records of one sample usually come from different ranges of test concentrations, not given here; some values may only mark the edge of a range.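 TGI denotes the concentration required for complete inhibition of growth.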

Assays:
Assay in all cases: DTP human tumour cell line panel, 384-well format
MDA-MB-468 breast = system: MDA-MB-468 breast
T-47D breast = system: T-47D breast
SF-295 CNS = system: SF-295 CNS
786-0 renal = system: 786-0 renal
SK-MEL-5 melanoma = system: SK-MEL-5 melanoma
COLO 205 colon = system: COLO 205 colon
PC-3 prostate = system: PC-3 prostate
OVCAR-8 ovarian = system: OVCAR-8 ovarian
HL-60(TB) leukemia = system: HL-60(TB) leukemia
A498 renal = system: A498 renal
DU-145 prostate = system: DU-145 prostate
UO-31 renal = system: UO-31 renal
NCI-H460 NSCLC = system: NCI-H460 NSCLC
SF-539 CNS = system: SF-539 CNS
UACC-62 melanoma = system: UACC-62 melanoma
A549 NSCLC = system: A549 NSCLC
KM12 colon = system: KM12 colon
NCI/ADR-RES ovarian = system: NCI/ADR-RES ovarian
TK-10 renal = system: TK-10 renal
NCI-H226 lung = system: NCI-H226 lung
HCC-2998 colon = system: HCC-2998 colon
M14 melanoma = system: M14 melanoma
HT29 colon = system: HT29 colon
SN12C renal = system: SN12C renal
HOP-92 NSCLC = system: HOP-92 NSCLC
SNB-19 CNS = system: SNB-19 CNS
SNB-75 CNS = system: SNB-75 CNS
SK-OV-3 ovarian = system: SK-OV-3 ovarian
OVCAR-3 ovarian = system: OVCAR-3 ovarian
CAKI-1 renal = system: CAKI-1 renal
IGROV1 ovarian = system: IGROV1 ovarian
UACC-257 melanoma = system: UACC-257 melanoma
OVCAR-5 ovarian = system: OVCAR-5 ovarian
BT-549 breast = system: BT-549 breast
MCF7 breast = system: MCF7 breast
MDA-MB-435 melanoma = system: MDA-MB-435 melanoma
NCI-H522 lung = system: NCI-H522 lung
NCI-H322M lung = system: NCI-H322M lung
ACHN renal = system: ACHN renal
SF-268 CNS = system: SF-268 CNS
NCI-H23 lung = system: NCI-H23 lung
EKVX NSCLC = system: EKVX NSCLC
SK-MEL-28 melanoma = system: SK-MEL-28 melanoma
MALME-3M melanoma = system: MALME-3M melanoma
MDA-MB-231 breast = system: MDA-MB-231 breast
HCT-116 colon = system: HCT-116 colon
SW-620 colon = system: SW-620 colon
HCT-15 colon = system: HCT-15 colon
HOP-62 NSCLC = system: HOP-62 NSCLC
U251 glioblastoma = system: U251 glioblastoma

## CC(=O)c1c(C)c2cnc(Nc3ccc(N4CCNCC4)cn3)nc2n(C2CCCC2)c1=O
MDA-MB-468 breast
  GI50: 4.39 µM and > 100 µM
T-47D breast
  GI50: 8.06 µM and > 100 µM
SF-295 CNS
  GI50: 7.13 µM and > 100 µM
786-0 renal
  GI50: 3.3 µM and > 100 µM
SK-MEL-5 melanoma
  GI50: 1.56 µM and > 100 µM
  TGI: 7.55 µM and > 100 µM
COLO 205 colon
  GI50: 5.15 µM and > 100 µM
PC-3 prostate
  GI50: 7.87 µM and > 100 µM
OVCAR-8 ovarian
  GI50: 9.35 µM and > 100 µM
HL-60(TB) leukemia
  TGI: 5.12 µM and > 100 µM
A498 renal
  GI50: 6.72 µM and > 100 µM
DU-145 prostate
  GI50: 7.72 µM and > 100 µM
UO-31 renal
  GI50: 2.87 µM and > 100 µM
  TGI: 9.9 µM and > 100 µM
NCI-H460 NSCLC
  GI50: 2.3 µM and > 100 µM
  TGI: 9.66 µM and > 100 µM
SF-539 CNS
  GI50: 9.62 µM and > 100 µM
UACC-62 melanoma
  GI50: 5.4 µM and > 100 µM
A549 NSCLC
  GI50: 5.01 µM and > 100 µM
KM12 colon
  TGI: 7.46 µM and > 100 µM
NCI/ADR-RES ovarian
  GI50: 9.96 µM and > 100 µM
TK-10 renal
  GI50: 2.23 µM and > 100 µM
  TGI: 9.88 µM and > 100 µM
NCI-H226 lung
  GI50: 6.71 µM and > 100 µM
HCC-2998 colon
  GI50: 5.1 µM and > 100 µM
M14 melanoma
  GI50: 5.16 µM and > 100 µM
HT29 colon
  GI50: 5.88 µM and > 100 µM
SN12C renal
  GI50: 6.81 µM and > 100 µM
HOP-92 NSCLC
  GI50: 8.02 µM and > 100 µM
SNB-19 CNS
  GI50: 7.23 µM and > 100 µM
SNB-75 CNS
  GI50: 7.55 µM and > 100 µM
SK-OV-3 ovarian
  GI50: 8.03 µM and > 100 µM
OVCAR-3 ovarian
  GI50: 9.38 µM and > 100 µM
CAKI-1 renal
  TGI: 7.41 µM and > 100 µM
IGROV1 ovarian
  GI50: 2.7 µM and > 100 µM
  TGI: 9.41 µM and > 100 µM
UACC-257 melanoma
  GI50: 6.82 µM and > 100 µM
OVCAR-5 ovarian
  GI50: 5.32 µM and > 100 µM
BT-549 breast
  GI50: 7.61 µM and > 100 µM
MCF7 breast
  GI50: 1.22 µM and > 100 µM
  TGI: 7.69 µM and > 100 µM
MDA-MB-435 melanoma
  GI50: 5.56 µM and > 100 µM
NCI-H522 lung
  GI50: 8.19 µM and > 100 µM
NCI-H322M lung
  GI50: 7.67 µM and > 100 µM
ACHN renal
  TGI: 8.69 µM and > 100 µM
SF-268 CNS
  GI50: 6.58 µM and > 100 µM
NCI-H23 lung
  GI50: 8.27 µM and > 100 µM
EKVX NSCLC
  GI50: 8.49 µM and > 100 µM
SK-MEL-28 melanoma
  GI50: 6.65 µM and > 100 µM
MALME-3M melanoma
  GI50: 5.27 µM and > 100 µM
MDA-MB-231 breast
  GI50: 7.69 µM and > 100 µM
HCT-116 colon
  GI50: 3.3 µM and > 100 µM
  TGI: 9.8 µM and > 100 µM
SW-620 colon
  GI50: 644 nM and > 100 µM
  TGI: 8.83 µM and > 100 µM
HCT-15 colon
  GI50: 3.23 µM and > 100 µM
  TGI: 9.16 µM and > 100 µM
HOP-62 NSCLC
  GI50: 7.12 µM and > 100 µM
U251 glioblastoma
  GI50: 6.03 µM and > 100 µM
